The whole screen tested about 340,000 compounds, of which about 6,900 (2%) were called active. Rule as the data show it: active = inhibition above about 30%; inactive = below that, where a call was filed. The entries are a selection whose mix differs from that of the whole data set. Entries without a call were filed so in the source.

Sequence of UniProt P14416 (P14416 whole entry, looked up): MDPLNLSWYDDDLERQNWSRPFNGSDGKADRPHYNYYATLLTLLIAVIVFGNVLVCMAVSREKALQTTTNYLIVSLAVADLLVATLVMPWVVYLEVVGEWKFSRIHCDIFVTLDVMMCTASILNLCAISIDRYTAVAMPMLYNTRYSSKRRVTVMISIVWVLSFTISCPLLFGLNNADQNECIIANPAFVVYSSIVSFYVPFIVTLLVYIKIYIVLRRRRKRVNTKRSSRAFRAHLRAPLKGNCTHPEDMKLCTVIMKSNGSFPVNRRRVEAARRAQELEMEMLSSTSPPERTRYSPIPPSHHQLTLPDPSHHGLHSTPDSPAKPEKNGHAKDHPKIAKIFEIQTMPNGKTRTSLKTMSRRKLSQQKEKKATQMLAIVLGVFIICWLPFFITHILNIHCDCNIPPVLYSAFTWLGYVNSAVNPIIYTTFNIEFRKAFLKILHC

The target of the experiment is D(2) dopamine receptor (Homo sapiens) (UniProt P14416). Briefly: HTS Assay for Allosteric Antagonists of the Human D2 Dopamine Receptor: Primary Screen for Antagonists. Also: 0% is about no effect. To be noted: HEK293 TREx D2 cells, calcium flux, dopamine EC80; at 10 µM; stronger effect = higher value. Put shortly:
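Calcium mobilization kinetics were recorded at 1 s intervals in tetracycline-induced HEK293 T-REx D2 cells, first for 180 s after compound addition and then 180 s after EC80 dopamine.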
Background: Calcium assays in cells follow changes in intracellular calcium, usually with a dye or a luminescent sensor.
A word on the inhibition: it is the relative decrease from the control value, in per cent. `COC(=O)c1ccccc1NC(=O)CSc1nc2sc3c(c2c(=O)[nH]1)CCCC3`: the inhibition was -15.7%.

Regarding `c1ccc(OCCN2CCN(Cc3nc(-c4ccc5c(c4)OCO5)no3)CC2)cc1`, the inhibition is active: 68.7%.

On to `COCCCNC(=O)Cn1c(=O)n(-c2cccc(C)c2)c(=O)c2c3c(sc21)CN(C(C)=O)CC3`, for which the inhibition was -3.11%.

Regarding `COc1ccc(-c2cc(C(F)(F)F)nc(S(=O)(=O)CCCC(=O)Nc3ccccc3C(F)(F)F)n2)cc1OC`, the inhibition came to 5.69%.

As to `COc1ccccc1CNc1nc(-c2ccco2)nn1C(=O)c1ccccc1[N+](=O)[O-]`, the inhibition was determined as 2.32%.

Regarding `CCCCn1c(CCNC(=O)c2ccc(F)cc2)nc2ccccc21`, the inhibition was -8.26%.

For the molecule `COc1ccc(S(=O)(=O)N2Cc3ccccc3CC2C(=O)Nc2cccc(C)c2)cc1OC` (stereo not drawn), the inhibition is 1.45%.

For `COc1cccc(CNC(=O)Cn2cc3c(n2)-c2c(oc(C(=O)N4CCOCC4)c2C)CC3)c1`, the inhibition was 8.01%.

For the molecule `COc1ccc(C(=O)NNC2=Nc3cccc4cccc2c34)cc1`, the inhibition is active: 62.6%.

In the case of `O=C(CSc1nc2c(c(=O)[nH]1)CCCC2)Nc1cccc(O)c1`, the inhibition was determined as 7.46%.

As to `CCCn1cc(S(=O)(=O)c2cccc(Cl)c2)c(=O)c2cc(F)c(N3CCN(CC)CC3)cc21`, the inhibition was determined as 4.75%.

As for `COCCCNC(=O)C1CCN(c2nnc(-n3cccc3CNc3ccc(C)cc3)s2)CC1`, the inhibition is 0.068%.

On to `COc1cc2[nH]c(=O)n(CCCC(=O)NCc3ccccc3Cl)c(=O)c2cc1OC`, for which the inhibition is -18.4%.

In the case of `O=C(CSc1nc(-c2ccco2)nc2cc(=O)[nH]n12)Nc1ccccc1Cl`, the inhibition was -14.8%.

In the case of `O=C(Cn1c(=O)oc2ccccc21)NCc1ccccc1Cl`, the inhibition is 4.24%.

Turning to `O=C(NC1CCN(Cc2ccccc2)CC1)c1ccccc1`, the inhibition is active: 73.8%.

Consider `COc1ccc(-n2c(-c3ccc(F)cc3)cn3c4c(=O)n(C)c(=O)n(C)c4nc23)cc1`, for which the inhibition was -3.77%.

Take `CCOc1ccc2ncc3c(-c4ccccc4)nn(CC(=O)Nc4cccc(F)c4)c3c2c1`: the inhibition is -0.204%.

As to `Cc1ccc(C)c(N2CCN(CCCNC(=O)Cn3c(-c4cccs4)cc4ccccc43)CC2)c1`, the inhibition was -10.3%.

`CCOC(=O)c1cnc(-n2nc(C)cc2C)nc1NCCc1ccccc1`: the inhibition is active: 34.3%.

As to `CCOC(=O)c1sc(N2C(=O)c3oc4ccc(F)cc4c(=O)c3C2c2cccc(OC)c2)nc1C` (stereo not drawn), the inhibition was -9.14%.

Take `CCN(C(=O)Cn1c(SCc2ccccc2F)nc2cccnc21)c1ccccc1`: the inhibition is -5.93%.

Regarding `Cc1cc(N2CCCCC2)nc2ccc(NC(=O)CCC(=O)N3CCN(c4cccc(Cl)c4)CC3)cc12`, the inhibition is -19.4%.

Consider `Cc1ccc2scc(N3CCN(c4ccccc4)CC3)c(=O)c2c1`, for which the inhibition was determined as 17.4%.

In the case of `CCOc1ccc(CCNC(=O)c2ccc3[nH]c(C)c(C)c3c2)cc1`, the inhibition is -3.76%.

As for `O=C(NC1CCCC1)C(c1ccncc1)N(Cc1cccs1)C(=O)c1csnn1` (stereo not drawn), the inhibition was active: 35.6%.

Regarding `O=C(CSCc1nc2cccnc2n1C1CCCCC1)NCc1cccc(Br)c1`, the inhibition was -12.5%.

In the case of `O=C(OCc1ccccc1)c1ccc(-c2nnn(Cc3ccccc3F)n2)cc1`, the inhibition came out at 19%.

On to `CCCNC(=O)c1cc2n(n1)CCCN(Cc1ccc(F)cc1)C2=O`, for which the inhibition was found to be 25.3%.

Take `O=C(c1ccc2c(c1)N(Cc1ccccc1F)C(=O)c1ccccc1S2(=O)=O)N1CCCCCC1`: the inhibition was -4.72%.

Take `CCOc1ccc(CCNC(=O)c2ccc(Cn3c(=O)c4cccn4c4cccnc43)cc2)cc1`: the inhibition was 0.715%.

For the molecule `COc1ccc(-c2csc3ncnc(Nc4ccc(OC)c(OC)c4)c23)cc1`, the inhibition is -9.79%.

As to `COc1cccc(C(=O)c2sc(Nc3ccc(C)cc3C)c(S(=O)(=O)c3ccccc3)c2N)c1`, the inhibition was -6.37%.

In the case of `CCOc1ccc(NC(=O)C(CC)n2nc(-c3ccc(C)c(C)c3)ccc2=O)cc1` (stereo not drawn), the inhibition was found to be 1.86%.

For `CCOc1ccc(OCC)c(NC(=O)CN(c2ccc(C)cc2)S(=O)(=O)c2c(C)n[nH]c2C)c1`, the inhibition was -9.26%.

As for `COc1ccc(C2CC(=O)c3c([nH]c(C(=O)OC4CCCC4)c3C)C2)cc1OC` (stereo not drawn), the inhibition was -8.04%.

Consider `COc1ccccc1N1CCN(C(c2ccccc2)c2nnc(-c3ccccc3Cl)o2)CC1` (stereo not drawn), for which the inhibition was 6.8%.

`Cc1ccc(NC(=O)Cn2c(=O)n(Cc3nc(-c4ccccc4)no3)c(=O)c3cc4c(cc32)OCO4)cc1C`: the inhibition is -2.88%.

On to `NC(=Nc1ccc(Cl)cc1)c1ccccc1`, for which the inhibition was active: 33.9%.

Consider `Cc1ccc(C)c(NC(=O)C2CCCN(S(=O)(=O)c3cccc4nsnc34)C2)c1` (stereo not drawn), for which the inhibition was -2.37%.

As for `CCC1CCCCN1C(=O)Cn1c(=O)n(-c2ccccc2C(F)(F)F)c(=O)c2c(C)c(C(=O)N(C)C)sc21` (stereo not drawn), the inhibition is -21.5%.

As for `CCOC(=O)c1ccc(N2C(=O)c3[nH]nc(-c4ccccc4)c3C2c2cccs2)cc1` (stereo not drawn), the inhibition came out at 11%.

Turning to `Cc1cccc(N(CC(=O)NC2CCCC2)C(=O)CS(=O)CC(=O)Nc2ccc3c(c2)OCO3)c1` (stereo not drawn), the inhibition is active: 31.7%.

For `COc1ccc(CCNc2nc(SCc3ccccc3Cl)nc3ccccc23)cc1OC`, the inhibition was -27.9%.

With `CCOc1cc(C=O)ccc1OCCSc1ccc(C)cc1`, the inhibition is active: 39.6%.

For `COc1ccc(NC(=O)Cn2c(=O)n(CCc3ccccc3)c(=O)c3sc4ccccc4c32)cc1`, the inhibition was -0.889%.

Regarding `Cc1ccccc1NC(=O)Cn1c(=O)n(CCCCC(=O)NCc2ccccc2Cl)c(=O)c2ccccc21`, the inhibition was -17.2%.

On to `O=C(CN1C(=O)COc2ccc(S(=O)(=O)Nc3ccccc3)cc21)NCc1ccccc1Cl`, for which the inhibition was -1.09%.

For `CCOC(=O)c1c(S(=O)(=O)N2CCC(C(=O)Nc3cccc(C#N)c3)CC2)c(C)n(C)c1C`, the inhibition is 23.9%.

As for `Cc1c(C(=O)OC2CCCCCC2)[nH]c2c1C(=O)CC(c1ccccc1Cl)C2` (stereo not drawn), the inhibition was 6.32%.

Turning to `CCN(CC)S(=O)(=O)c1ccc(C(=O)NC2CC(=O)N(c3ccc4c(c3)OCCO4)C2)cc1` (stereo not drawn), the inhibition came out at 2.56%.

Consider `Cc1ccc(-c2ccc(=O)n(CC(=O)NC(C)c3ccccc3)n2)cc1` (stereo not drawn), for which the inhibition amounted to 1.11%.

Turning to `CCC1CN(C(=O)NCc2cccc(OC)c2)c2ccccc2O1` (stereo not drawn), the inhibition came to 10.9%.

`COc1ccc(-c2[nH]c(-c3ccccc3)nc2SCC(=O)NC2CCCC2)cc1`: the inhibition turned out to be 2.44%.

On to `COc1ccc(CCNC(=O)c2cc3c(=O)n(C)c4cc(Cl)ccc4c3s2)cc1OC`, for which the inhibition was -9.4%.

As for `COc1ccc(-c2cc(NCc3ccc(C)cc3)n3cnnc3n2)cc1`, the inhibition stood at 11%.

`CCN1C(=O)c2ccccc2Sc2ccc(NC(=O)Nc3ccc(Br)c(C)c3)cc21`: the inhibition was -28.2%.

For the molecule `O=S1(=O)c2ccccc2N(Cc2ccccc2Cl)c2ccccc21`, the inhibition was -3.21%.

With `COc1cccc(NC(=O)C(=O)NCCc2sc(-c3cccc(C)c3)nc2C)c1`, the inhibition is 5.82%.

As for `COc1ccc(Nc2nc(N)nc(CSc3nc4ccccc4s3)n2)cc1`, the inhibition turned out to be 4.15%.

On to `Cc1cc(C)c(Nc2nn3c(=O)c4cc5c(cc4nc3s2)OCO5)c(C)c1`, for which the inhibition is 18.3%.

As to `CNC(=O)c1cc2c(n(-c3ccc(C)cc3)c1=O)CC(C)(C)CC2=O`, the inhibition came out at 1.95%.

Consider `O=C(Nc1ccc2nc(SCC(=O)N3CCOCC3)sc2c1)c1ccc(F)cc1`, for which the inhibition is -6.16%.

Consider `COc1cc(OC)cc(-c2nc3nc(C)c(CCC(=O)Nc4ccc(Cl)cc4)c(C)n3n2)c1`, for which the inhibition was found to be 15.8%.

Regarding `COc1cccc(C(=O)Nc2ccc3oc(-c4ccc5ccccc5c4)nc3c2)c1`, the inhibition came out at 0.916%.

Take `O=C(Nc1ccccc1)/C(=C\c1ccc2c(c1)OCO2)NC(=O)c1ccco1`: the inhibition was active: 30%.

Take `O=C(Nc1ccccc1F)C(Cc1ccccc1)n1cccc1` (stereo not drawn): the inhibition is -14.5%.

Take `COCCCNc1nc2c(c(=O)n(C)c(=O)n2C)n1Cc1cccc(OC)c1`: the inhibition is active: 39.7%.

Turning to `COc1ccc(-c2c3c(=O)n(C)c(=O)n(C)c3c3c(-c4ccccc4)nc4ccccc4n23)cc1`, the inhibition came out at 0.188%.

For the molecule `COc1ccc(Cn2c(C(=O)O)c(CNCc3cccs3)c3ccc(C)cc32)cc1`, the inhibition is -4.63%.

Turning to `Cc1ccc(S(=O)(=O)N(C)C)cc1NC(=S)Nc1ccc2cn[nH]c2c1`, the inhibition is active: 43%.

Consider `CCC(CC)C(=O)NC12CC3CC(CC(C3)C1)C2`, for which the inhibition is active: 32.5%.

In the case of `CN1CCN(C(c2ccc(F)cc2)c2sc3nc(-c4ccco4)nn3c2O)CC1` (stereo not drawn), the inhibition was -9.39%.

With `CCn1c(C)c(C)c2cc(C(=O)NCCc3cc(OC)c(OC)c(OC)c3)ccc21`, the inhibition stood at 2.91%.

`CCc1ccc(S(=O)(=O)c2nnn3c2nc(NCc2cccs2)c2sccc23)cc1`: the inhibition was -19%.

Regarding `CCOC(=O)Cn1c(=O)oc2cc(S(=O)(=O)Nc3cc(OC)cc(OC)c3)ccc21`, the inhibition is 16.9%.

With `COc1ccc(N2CCN(C(=O)C3CCN(S(=O)(=O)c4cnc[nH]4)CC3)CC2)cc1`, the inhibition is -18.5%.

As to `COc1ccccc1C(=O)NCc1ccc2c(c1)CCN2C(=O)c1cccc(C)c1`, the inhibition is -3.09%.

In the case of `CCc1ccccc1Nc1nn2c(=O)c3ccc(C(=O)NCc4cccs4)cc3nc2s1`, the inhibition was found to be 14.5%.

As for `O=C(CN1CCN(c2ccccn2)CC1)Nc1ccccc1F`, the inhibition is active: 56.9%.

Turning to `COc1cc(S(=O)(=O)N2CCCCC2)ccc1NC(=O)c1ccncc1`, the inhibition is active: 37.4%.

In the case of `CN1C/C(=C/c2ccsc2)C(=O)/C(=C/c2ccsc2)C1`, the inhibition is active: 44.4%.

On to `COc1ccc(CNS(=O)(=O)c2cc(C(=O)Nc3cc(Cl)cc(Cl)c3)ccc2F)cc1`, for which the inhibition is -22.6%.

For `CCc1ccc(CNC(=O)C(CC)n2ccc3cc(S(=O)(=O)N4CCCCC4)ccc32)cc1` (stereo not drawn), the inhibition amounted to 8.2%.

`CCOC(=O)C1CCCN(C(=O)C2CCN(c3nnc(C)c4c(C)n(-c5ccccc5)nc34)CC2)C1` (stereo not drawn): the inhibition was 1.7%.

For the molecule `COc1ccccc1C(=O)NCc1ccc2c(c1)CCN2C(=O)c1ccncc1`, the inhibition stood at 3.45%.

On to `COc1cccc(/C=C/C(=O)OCC(=O)c2ccc3c(c2)NC(=O)CO3)c1`, for which the inhibition was active: 42.1%.

For `Cc1cc(NC(=O)CSc2nc3c([nH]c4ccccc43)c(=O)n2-c2cccc(Cl)c2)no1`, the inhibition worked out at 5.12%.

Regarding `COc1ccc(N2CCN(C(=O)C34CCC(C)(C(=O)C3)C4(C)C)CC2)cc1` (stereo not drawn), the inhibition is active: 36.8%.

On to `CCOc1ccccc1NC(=O)C(Cc1ccccc1)NS(=O)(=O)c1ccc(Br)s1` (stereo not drawn), for which the inhibition was -6.22%.

For `COc1cc(C)cc2oc(=O)c(CC(=O)N3CCN(C(=O)C4COc5ccccc5O4)CC3)c(C)c12` (stereo not drawn), the inhibition is active: 37.1%.

Consider `COc1cc(NC(=O)CN(C)S(=O)(=O)c2ccc3[nH]c4c(c3c2)CCCC4)cc(OC)c1OC`, for which the inhibition was determined as 0.19%.

As to `COc1ccc(OC2CCN(S(=O)(=O)c3ccc(OC)cc3)CC2)cc1`, the inhibition is 16%.
